# Measured values reported in PubChem BioAssay AID1745853 (National Center for Advancing Translational Sciences (NCATS), 2022).
# Some of the results follow. These are further read-outs of the screen, such as a control signal, another cell line or another target. No call is given for them.
# How the values were obtained:
# Test in all cases: Primary Screen for Target Class Profiling of Small Molecule Inhibitors of Methyltransferases
# [1] = molecular target: Glycine N-methyltransferase (Homo sapiens) (UniProt Q14749); details: purified enzyme, MTase-Glo SAH luminescence; measured here: GNMT inhibition; at 40 µM; stronger effect = lower value
# In short: (§1)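 Each enzyme was reacted with SAM and its substrate, with compounds tested once at 40 uM; SAH formed was read by MTase-Glo luminescence.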
# [2] = molecular target: Guanidinoacetate N-methyltransferase (Homo sapiens) (UniProt Q14353); details: purified enzyme, MTase-Glo SAH luminescence; measured here: GAMT inhibition; at 40 µM; stronger effect = lower value
# In short: as §1
# [3] = molecular target: Histamine N-methyltransferase (Homo sapiens) (UniProt P50135); details: purified enzyme, MTase-Glo SAH luminescence; measured here: HNMT inhibition; at 40 µM; stronger effect = lower value
# In short: as §1
# [4] = molecular target: Nicotinamide N-methyltransferase (Homo sapiens) (UniProt P40261); details: purified enzyme, MTase-Glo SAH luminescence; measured here: NNMT inhibition; at 40 µM; stronger effect = lower value
# In short: as §1
# [5] = molecular target: Phenylethanolamine N-methyltransferase (Homo sapiens) (UniProt P11086); details: purified enzyme, MTase-Glo SAH luminescence; measured here: PNMT inhibition; at 40 µM; stronger effect = lower value
# In short: as §1
# % is scaled to controls: 0 for no effect and ±100 for the full control effect.
SMILES,"activity change, negative = inhibition [1]","activity change, negative = inhibition [2]","activity change, negative = inhibition [3]","activity change, negative = inhibition [4]","activity change, negative = inhibition [5]"
CCOc1cccc(CN2CCCC(CNC(=O)c3cccc(OC)c3OC)C2)c1 (stereo not given),-4.38%,-4.46%,-2.13%,-7.57%,-6.81%
CCOc1ccc(CN2C(=O)c3nc4ccccc4n3CC2(C)C(=O)NC2CCCCC2C)cc1 (stereo not given),-7.88%,4.28%,-3.19%,-7.7%,-2.66%
O=S(=O)(c1ccccc1)c1cnc2c(N3CCNCC3)cccc2c1,-1.99%,-6.63%,-6.33%,-28.4%,-21.1%
C=CCn1c(=O)c2ccc(C(=O)NCC(C)C)cc2n2c(=O)n(CC(=O)Nc3ccccc3C)nc12,-3.86%,-0.757%,-4.04%,-17.4%,-9.07%
O=C(NC1CCN(Cc2cccc(-c3cccs3)c2)CC1)c1cccc(Cl)c1,-2.65%,0.739%,-12.7%,-4.84%,-6.26%
CCc1cc2c(cc3n2CC(C)(C(=O)NC2CCCCCC2)N(Cc2ccccc2C)C3=O)s1 (stereo not given),-1.16%,4.2%,0.829%,4%,-5.35%
COc1ccc(-c2ccccc2NC(=O)C2CCCN(CC=C(C)C)C2)cc1 (stereo not given),-1.91%,0.121%,-2.57%,-8.99%,11.3%
COC(=O)c1ncn2c1C(=O)N(Cc1ccccc1Cl)C(C)(C(=O)NCc1ccccc1OC)C2 (stereo not given),0.195%,0.017%,-0.525%,2%,3.06%
NC(=O)N1CCC(CC(=O)N2CCC(C3c4ncc(Br)cc4CCc4cc(Cl)cc(Br)c43)CC2)CC1 (stereo not given),-19.8%,7.71%,-5.39%,-73.9%,1.66%
CCCCOc1ccccc1-c1cc2n(n1)CC(C)(C(=O)NC1CCCCCC1)N(CCOC)C2=O (stereo not given),-0.278%,5.32%,-0.736%,-2.23%,0.345%
CCc1cccc(NC(=O)Cn2nc3n(CCC(C)C)c(=O)c4ccc(C(=O)NC(C)C)cc4n3c2=O)c1,0.628%,5.91%,-2.93%,1.54%,2.93%
CCOC(=O)CNC(=O)N1CCn2cccc2C1C(C)C (stereo not given),6.26%,1.21%,2.67%,3.33%,6.82%
O=C(CCc1nnc2n(CCc3ccccc3)c(=O)c3ccccc3n12)NCc1ccc2c(c1)OCO2,-0.129%,4.33%,4.43%,1.39%,-6.36%
CC1(C)C(=O)CCC2(C)C1C(O)C=C1COC(=O)C12O (stereo not given),1.46%,-3.51%,11.4%,-15.3%,-11.7%
COc1ccc(N2C(=O)c3cc4occc4n3CC2(C)C(=O)NC2CCCCCC2)cc1Cl (stereo not given),-3.33%,3.75%,-0.227%,-1.23%,-7.87%
CN1C(=O)c2cc(C(=O)NCCc3ccccc3)nn2CC1(C)C(=O)NC1CCCC1 (stereo not given),8.59%,0%,4.59%,9.63%,1.9%
O=C(CCc1nnc2n(Cc3ccc(Cl)cc3)c(=O)c3ccccc3n12)NCCCN1CCCC1=O,-6.84%,3.6%,1.57%,1.34%,-0.753%
Cc1cnc(N2CC[C@](C)(O)[C@@H](O)C2)nc1N(C)C,-0.496%,-0.127%,-0.71%,-4.76%,-1.35%
C=CCN(C)C(=O)C[C@@H]1c2nc(NC(=O)c3ccco3)sc2C[C@@H]2[C@](C)(CO)[C@H](O)CC[C@]21C,-6.69%,-4.11%,-4.55%,-8%,1.02%
COC(=O)c1cc2n(n1)CC(C)(C(=O)NC1CCCCCC1)N(c1ccc(C)c(Cl)c1)C2=O (stereo not given),-8.8%,-7.19%,-13.5%,-6.89%,-7.62%
CCCn1c(=O)c2ccc(Cl)cc2n2c(SCC(=O)Nc3ccc(C)cc3Cl)nnc12,-3.64%,-4.38%,8.4%,-9.86%,-2.48%
CCOc1cc(C(C)(C)C)ccc1C1=NC(C)(c2ccc(Cl)cc2)C(C)(c2ccc(Cl)cc2)N1C(=O)N1CCN(CCCS(C)(=O)=O)CC1 (stereo not given),1.35%,1.64%,-3.85%,-33%,-6.04%
COc1ccc(NS(=O)(=O)c2cc3[nH]c(=O)[nH]c3cc2C)cc1,-3.86%,1.23%,0.963%,1.69%,-17.2%
COc1ccc(S(=O)(=O)c2nnn3c2nc(Nc2ccc(C)cc2)c2ccccc23)cc1,-7.61%,0.299%,-1.4%,1.27%,-7.16%
CCN(CC)CCOc1ccc(/C(=C(\Cl)c2ccccc2)c2ccccc2)cc1,1.93%,7.49%,-19.5%,-13.5%,2.14%
CCc1cccc(N2C(=O)c3cc(-c4ccccc4)nn3CC2(C)C(=O)NCc2ccccc2)c1 (stereo not given),1.6%,8.23%,0.955%,2.41%,-3.19%
Cc1noc(C)c1S(=O)(=O)N1CCC2(CC1)CC1C(=O)NCCN1C2 (stereo not given),-3.84%,-1.33%,-2.32%,-5.26%,-0.605%
C[C@@H]1O[C@@H](O[C@@H]2[C@@H](O[C@@H]3O[C@@H](C)[C@H](O[C@@H]4OC[C@H](O)[C@H](O[C@@H]5OC[C@@H](O)[C@H](O)[C@H]5O)[C@H]4O)[C@@H](O[C@@H]4OC[C@](O)(CO)[C@H]4O)[C@H]3O)[C@H](OC(=O)[C@]34CCC(C)(C)C[C@H]3C3=CCC5[C@@]6(C)C[C@H](O)[C@H](O[C@@H]7O[C@H](CO[C@@H]8OC[C@H](O)[C@H](O)[C@H]8O)[C@@H](O)[C@H](O)[C@H]7O)C(C)(C)C6CC[C@@]5(C)[C@]3(C)C[C@H]4O)OC[C@H]2O)[C@H](O)[C@H](O)[C@H]1O (stereo not given in full),2.94%,16.9%,5.68%,6.03%,11.6%
